Consider 42 sequences from publication PMC7819943, “Rice protein-binding microarrays: a tool to detect cis-acting elements near promoter regions in rice”.

The other results are listed elsewhere or left out.

For this test, the target named is T1, OsWOX13 (Oryza sativa, UniProt Q5QMM3 1-267).
T1 sequence: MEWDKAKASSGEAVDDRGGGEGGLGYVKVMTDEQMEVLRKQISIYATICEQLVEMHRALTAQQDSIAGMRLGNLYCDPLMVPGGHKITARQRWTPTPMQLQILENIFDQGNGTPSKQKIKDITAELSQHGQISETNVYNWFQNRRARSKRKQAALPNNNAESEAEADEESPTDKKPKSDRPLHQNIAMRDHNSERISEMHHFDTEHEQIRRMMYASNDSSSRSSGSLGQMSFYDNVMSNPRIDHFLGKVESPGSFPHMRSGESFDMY
The test is described as follows: protein-binding microarray (RPBM); PBS, 2% BSA, 51.3 ng/ul salmon testes DNA, 50 uM zinc acetate, 200 nM TF, 25 C, 1 h; high values mean tight binding. Particulars: protein: recombinant; tags: N-terminal polyhistidine and DsRed monomer fusion (pET32a); label: CyDye5-dUTP incorporated in the synthesized complementary strand; 3' TTTTT single-stranded linker to array surface; dsDNA, one strand shown. Put shortly:
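Transcription factors, each fused N-terminally to a polyhistidine tag and DsRed, were expressed in E. coli BL21-CodonPlus and purified on Ni–NTA. A custom Agilent array was made double-stranded by primer extension with Cy5-dUTP and blocked with 2% BSA. It was incubated with 200 nM protein in PBS, 2% BSA, salmon testes DNA and 50 µM zinc acetate at 25 °C for 1 h, then washed. The binding signal is per-feature fluorescence intensity (arbitrary units) read on an Axon 4000B scanner.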
On to “TCATGTGATATAATTTGCATTAAATTTGAGTATGGAATAGCGGAGTCACCTAGTGCAG”, for which the binding signal was 8690 fluorescence intensity (a.u.).

Turning to “TTACACTGATTGATGCTCCACATGAACACCACATGCATTTCGGAGTCACCTAGTGCAG”, the binding signal is 32600 fluorescence intensity (a.u.).

Consider “GCTCCATATATATAAATTAAATCTATCCTATTTGGTGAGTCGGAGTCACCTAGTGCAG”, for which the binding signal is 3880 fluorescence intensity (a.u.).

Turning to “AATCAATTTGATGATGATGACCGGAGGAAAAGAACGAAAACGGAGTCACCTAGTGCAG”, the binding signal is 13100 fluorescence intensity (a.u.).

For “AAATTAAATTATTTTGTAACGGAGTGAGTAACTTCTAGCTCGGAGTCACCTAGTGCAG”, the binding signal is 16400 fluorescence intensity (a.u.).

Take “TCTTACTTCTAATTTAAAATTAATTTGCCATACCTGTTTTCGGAGTCACCTAGTGCAG”: the binding signal was 13500 fluorescence intensity (a.u.).

In the case of “CCCATAACTGAATTGTTAATTTTGTCACGCGAGCAACGCACGGAGTCACCTAGTGCAG”, the binding signal is 48400 fluorescence intensity (a.u.).

Regarding “AATAAATTTATTTAGCTGCCAATAAACAAAGGAAACTGGACGGAGTCACCTAGTGCAG”, the binding signal is 17700 fluorescence intensity (a.u.).

Consider “TTCCGGTTCCATATTAATTGATATTTTAGACAAGGCTAAGCGGAGTCACCTAGTGCAG”, for which the binding signal is 16700 fluorescence intensity (a.u.).

Take “TAGTAAACAATAACATATAATTGACATCAAAATTATGATCCGGAGTCACCTAGTGCAG”: the binding signal was 9430 fluorescence intensity (a.u.).

For “TAATTTGATGGATTATTGTCACTGACATCATCACCAGCACCGGAGTCACCTAGTGCAG”, the binding signal was 25400 fluorescence intensity (a.u.).

With “TAATTAATTATCTTTTAAAATATTAATGTATCACGTTAATCGGAGTCACCTAGTGCAG”, the binding signal is 12000 fluorescence intensity (a.u.).

“GTTCTTCAATTTCTTATCTTTCAATCCCCAAAATTTTCTTCGGAGTCACCTAGTGCAG”: the binding signal was 3560 fluorescence intensity (a.u.).

In the case of “GCAGTAATGGAATGGATCACATTCGGTACTGTATTCGGGTCGGAGTCACCTAGTGCAG”, the binding signal is 3390 fluorescence intensity (a.u.).

As for “AAAATTTTCATTCTGTTACATTGAATATTTAAACACATGCCGGAGTCACCTAGTGCAG”, the binding signal is 3390 fluorescence intensity (a.u.).

Turning to “TTAGCTAATACTTAATTAATCACGCAGTAGTGGACCGCTTCGGAGTCACCTAGTGCAG”, the binding signal is 8570 fluorescence intensity (a.u.).

With “TCAGATAATTAAACACCCATATGTGTGTGTGCTATTTCTCCGGAGTCACCTAGTGCAG”, the binding signal was 6280 fluorescence intensity (a.u.).

Regarding “CTCCTGTCATTTCATTAAAATTTCACTCTACCCATTCCACCGGAGTCACCTAGTGCAG”, the binding signal is 4610 fluorescence intensity (a.u.).

Turning to “AATTATATTAATTATTTAGCCTCAACGAACATGGCACCTTCGGAGTCACCTAGTGCAG”, the binding signal was 11800 fluorescence intensity (a.u.).

As for “AGTATTAATCATGTTTTATCATCTAACAACAATGAAAATACGGAGTCACCTAGTGCAG”, the binding signal was 5730 fluorescence intensity (a.u.).

Regarding “GGGCATAATAATTATGAATTCGATTGAATTAAGAGGCTGTCGGAGTCACCTAGTGCAG”, the binding signal was 18200 fluorescence intensity (a.u.).

As to “GTCAACACAATCAACCCTAATCAAGCCCATTCCCATTCACCGGAGTCACCTAGTGCAG”, the binding signal is 8120 fluorescence intensity (a.u.).

Turning to “CCACTGACATAATGCAAAATAAGATATCATCGATGACATACGGAGTCACCTAGTGCAG”, the binding signal was 5570 fluorescence intensity (a.u.).

For the sequence “AGGGGATGATCGATTAGTTTACATTACCCTTTTGATCTCACGGAGTCACCTAGTGCAG”, the binding signal is 3510 fluorescence intensity (a.u.).

In the case of “TGTGTCAATTACACATCCATCATTATCCATCCACCTTCCGCGGAGTCACCTAGTGCAG”, the binding signal was 28100 fluorescence intensity (a.u.).

As to “TTTGAGTCTAATTATGTCATGATTTTGACAATGTGATGCTCGGAGTCACCTAGTGCAG”, the binding signal is 30100 fluorescence intensity (a.u.).

Consider “ACAATAACCAATCAATGAAATGAGAATGAACATCAGAAGCCGGAGTCACCTAGTGCAG”, for which the binding signal was 17900 fluorescence intensity (a.u.).

For “GGGGAAATTTTCACGAGGGAGAGGGAGGGGAGGGATATTTCGGAGTCACCTAGTGCAG”, the binding signal was 3860 fluorescence intensity (a.u.).

With “ATATGTACGATAATTATACGATTGCTAACAGATAGTGAATCGGAGTCACCTAGTGCAG”, the binding signal is 6930 fluorescence intensity (a.u.).

For “GGGGAGAGAGATTAATTAGGGAAGTACTCCACTCCCTCCACGGAGTCACCTAGTGCAG”, the binding signal is 5990 fluorescence intensity (a.u.).

On to “AAGTTGTAAATATTGATGATTTATATAGCTTTGTTGTTGACGGAGTCACCTAGTGCAG”, for which the binding signal is 4630 fluorescence intensity (a.u.).

As to “ATCCGGATTGAGGAGGACGTGAATTAAATTCGGTCCATAGCGGAGTCACCTAGTGCAG”, the binding signal is 3810 fluorescence intensity (a.u.).

Take “TAGTCAATTTTATAGCTAATCTTATTATATACTATGTTGGCGGAGTCACCTAGTGCAG”: the binding signal is 3280 fluorescence intensity (a.u.).

As to “TATCAAATTTATCCATTTGTTAATGTTGTAATAATTAAAACGGAGTCACCTAGTGCAG”, the binding signal was 6890 fluorescence intensity (a.u.).

For “ATTAACTGCAATTAGATGAGCATCTGAGGCAAGAAAGAAGCGGAGTCACCTAGTGCAG”, the binding signal was 25000 fluorescence intensity (a.u.).

Regarding “ATCTTCAATCTTCAGTTCTGTAACCACTACACCAGCGATACGGAGTCACCTAGTGCAG”, the binding signal was 4770 fluorescence intensity (a.u.).

On to “ATAAACACAATCAGATTACAGCTTCCCTGCTGTTTCGTTTCGGAGTCACCTAGTGCAG”, for which the binding signal was 5650 fluorescence intensity (a.u.).

As for “CCCAAATTAATCATCATGTAATAGAATGATATATTCATTGCGGAGTCACCTAGTGCAG”, the binding signal is 49200 fluorescence intensity (a.u.).

“AATAATTGAGGTTCTTTCTGGTTATGGATGCCTCATTACGCGGAGTCACCTAGTGCAG”: the binding signal was 23700 fluorescence intensity (a.u.).

As for “GGATTAATAGATCACACATAAGCGACACATCAAACTACATCGGAGTCACCTAGTGCAG”, the binding signal is 4890 fluorescence intensity (a.u.).

Regarding “CGCTGACAGCCCGGGCCCACCGGTCGGATCGTGCTGGGTACGGAGTCACCTAGTGCAG”, the binding signal is 5820 fluorescence intensity (a.u.).

Regarding “CCAGAATTGAAAGGACGATTGGATCAATTAATGGAAGCATCGGAGTCACCTAGTGCAG”, the binding signal is 38000 fluorescence intensity (a.u.).
